The target of one experiment is S/FLAG/SBP tagged KARS (UniProt Q15046). Nature of the experiment: pull-down; streptavidin pull down (SA pull down) of S/FLAG/SBP-tagged bait from lysates of transfected HEK 293T and HCT-8 cells in NETN buffer, eluate immunoblotted for endogenous proteins; mock vector as control. (Immunoblotting shows a protein as a band on a membrane.)
Another experiment concerns the target T1, S/FLAG/SBP tagged AIMP1 (UniProt Q12904).
T1 sequence: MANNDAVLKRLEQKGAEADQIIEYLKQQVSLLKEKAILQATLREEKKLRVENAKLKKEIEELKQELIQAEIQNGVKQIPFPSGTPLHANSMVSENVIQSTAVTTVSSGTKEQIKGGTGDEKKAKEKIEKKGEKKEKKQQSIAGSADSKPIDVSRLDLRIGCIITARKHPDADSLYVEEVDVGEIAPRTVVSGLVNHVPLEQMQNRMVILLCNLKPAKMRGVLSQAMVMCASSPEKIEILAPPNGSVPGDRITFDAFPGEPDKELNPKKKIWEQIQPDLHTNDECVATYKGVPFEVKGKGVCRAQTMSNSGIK
Described as above.

The chains behind the UniProt entries cited, without tags or fusion partners.
UniProt Q15046: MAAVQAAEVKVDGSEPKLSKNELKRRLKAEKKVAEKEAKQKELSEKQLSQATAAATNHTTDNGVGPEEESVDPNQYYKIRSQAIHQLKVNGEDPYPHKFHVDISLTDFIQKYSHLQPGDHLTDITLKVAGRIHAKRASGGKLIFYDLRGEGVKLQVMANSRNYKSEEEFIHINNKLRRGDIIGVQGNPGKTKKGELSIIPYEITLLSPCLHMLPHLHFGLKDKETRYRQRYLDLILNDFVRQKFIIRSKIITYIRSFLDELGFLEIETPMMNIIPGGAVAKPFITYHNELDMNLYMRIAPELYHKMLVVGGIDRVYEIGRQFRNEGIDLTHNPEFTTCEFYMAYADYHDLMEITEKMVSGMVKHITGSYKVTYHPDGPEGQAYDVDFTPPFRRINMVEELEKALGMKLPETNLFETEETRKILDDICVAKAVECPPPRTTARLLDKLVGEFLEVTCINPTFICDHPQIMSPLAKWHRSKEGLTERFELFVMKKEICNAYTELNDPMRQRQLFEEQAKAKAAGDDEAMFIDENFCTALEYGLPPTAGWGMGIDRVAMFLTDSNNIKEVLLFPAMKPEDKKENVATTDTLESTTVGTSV
UniProt P07814: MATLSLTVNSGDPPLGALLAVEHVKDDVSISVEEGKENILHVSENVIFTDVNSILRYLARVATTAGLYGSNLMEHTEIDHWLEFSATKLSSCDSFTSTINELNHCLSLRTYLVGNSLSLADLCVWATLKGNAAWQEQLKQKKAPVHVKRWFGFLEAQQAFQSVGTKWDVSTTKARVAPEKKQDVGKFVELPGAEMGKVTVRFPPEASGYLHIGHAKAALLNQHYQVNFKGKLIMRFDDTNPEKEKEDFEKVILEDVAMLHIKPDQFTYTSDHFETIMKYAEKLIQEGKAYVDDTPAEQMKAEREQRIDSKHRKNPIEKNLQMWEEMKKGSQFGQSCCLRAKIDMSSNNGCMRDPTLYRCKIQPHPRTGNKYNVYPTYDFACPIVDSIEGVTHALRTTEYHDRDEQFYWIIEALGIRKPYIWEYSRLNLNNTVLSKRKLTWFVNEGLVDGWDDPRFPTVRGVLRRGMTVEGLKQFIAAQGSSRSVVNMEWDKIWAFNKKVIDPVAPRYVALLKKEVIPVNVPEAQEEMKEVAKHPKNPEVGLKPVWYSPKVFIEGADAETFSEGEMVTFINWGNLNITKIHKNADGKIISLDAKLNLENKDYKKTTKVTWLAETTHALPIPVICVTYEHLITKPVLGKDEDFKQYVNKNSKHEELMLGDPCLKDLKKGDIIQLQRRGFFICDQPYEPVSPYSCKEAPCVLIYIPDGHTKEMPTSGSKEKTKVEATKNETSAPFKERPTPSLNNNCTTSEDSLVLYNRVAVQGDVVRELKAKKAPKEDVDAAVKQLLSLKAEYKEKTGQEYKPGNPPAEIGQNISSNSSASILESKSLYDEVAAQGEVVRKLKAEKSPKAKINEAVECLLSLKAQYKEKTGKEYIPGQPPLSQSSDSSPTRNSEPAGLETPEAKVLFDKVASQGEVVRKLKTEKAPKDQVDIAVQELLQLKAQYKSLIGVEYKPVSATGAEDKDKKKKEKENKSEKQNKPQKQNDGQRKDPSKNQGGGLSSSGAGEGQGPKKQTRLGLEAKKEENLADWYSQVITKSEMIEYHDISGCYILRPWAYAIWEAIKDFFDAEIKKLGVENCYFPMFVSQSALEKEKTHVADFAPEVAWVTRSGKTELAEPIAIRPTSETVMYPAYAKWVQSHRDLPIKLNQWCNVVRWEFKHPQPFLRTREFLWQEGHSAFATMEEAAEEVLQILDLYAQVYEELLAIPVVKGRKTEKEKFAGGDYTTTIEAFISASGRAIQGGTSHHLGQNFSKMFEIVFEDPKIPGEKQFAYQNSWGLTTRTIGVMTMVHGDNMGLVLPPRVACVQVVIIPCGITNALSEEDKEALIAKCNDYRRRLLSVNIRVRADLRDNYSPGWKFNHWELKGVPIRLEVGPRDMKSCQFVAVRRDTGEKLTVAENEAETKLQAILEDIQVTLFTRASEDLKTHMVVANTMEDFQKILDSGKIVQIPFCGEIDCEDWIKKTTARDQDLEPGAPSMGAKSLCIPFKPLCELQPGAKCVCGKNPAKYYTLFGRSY

Another experiment addresses T2, S/FLAG/SBP tagged AIMP2 (UniProt Q13155).
T2 sequence: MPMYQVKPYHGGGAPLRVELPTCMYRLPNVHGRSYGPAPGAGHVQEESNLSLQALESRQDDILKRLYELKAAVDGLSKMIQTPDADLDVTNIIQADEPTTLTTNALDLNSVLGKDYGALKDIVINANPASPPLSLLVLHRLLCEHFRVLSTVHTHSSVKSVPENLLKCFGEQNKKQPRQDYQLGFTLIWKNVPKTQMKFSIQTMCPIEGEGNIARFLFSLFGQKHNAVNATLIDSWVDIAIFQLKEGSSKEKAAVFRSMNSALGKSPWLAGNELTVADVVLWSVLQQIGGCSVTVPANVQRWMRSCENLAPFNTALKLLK
The experiment is described as above.

For experiment [1], the target named is T3, Aminoacyl tRNA synthase complex-interacting multifunctional protein 1 (endogenous, canonical) (human (endogenous in HEK 293T and HCT-8)) (UniProt Q12904).
T3 sequence: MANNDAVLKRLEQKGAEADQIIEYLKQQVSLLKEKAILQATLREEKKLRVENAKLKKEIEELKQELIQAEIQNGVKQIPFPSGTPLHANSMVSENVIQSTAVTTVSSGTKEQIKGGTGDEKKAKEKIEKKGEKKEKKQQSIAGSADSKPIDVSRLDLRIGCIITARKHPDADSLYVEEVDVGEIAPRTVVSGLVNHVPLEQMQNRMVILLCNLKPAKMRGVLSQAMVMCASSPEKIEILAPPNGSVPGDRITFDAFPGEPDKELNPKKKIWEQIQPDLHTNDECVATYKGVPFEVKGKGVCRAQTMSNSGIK
Nature of the experiment: co-IP; endogenous proteins; 500 μg lysate of HEK 293T and HCT-8 cells in NETN buffer, primary antibody 2 h at 4 °C, protein A/G PLUS-Agarose 12 h, immunoblot; IgG as control.

Experiment [2] deals with Bifunctional aminoacyl-tRNA synthetase (glutamyl-prolyl-tRNA synthetase) (human (endogenous in HEK 293T and HCT-8)) (UniProt P07814). Described as above.
The target of experiment [3] is Lysyl-tRNA synthetase (endogenous) (human (endogenous in HEK 293T and HCT-8)), Q15046. The description is as above. Particulars: remark: other sources report otherwise.
Experiment [4] deals with S/FLAG/SBP tagged KARS, Q15046. Nature of the experiment: pull-down; streptavidin pull down (SA pull down) of S/FLAG/SBP-tagged bait from lysates of transfected HEK 293T and HCT-8 cells in NETN buffer, eluate immunoblotted for endogenous proteins; mock vector as control. As to conditions: remark: other sources report otherwise.

The text below walks through data of publication PMC3846882.

These are yes or no findings as the source states them, for the method shown. In cells and extracts the contact can be indirect. Some results given as binding are weak or reduced against the parent protein; the word gives no strength. For part of these data: Where a sequence is shown, tags or fusion partners need not be part of it.

B1: threonyl-tRNA synthetase (enzyme, UniProt P26639 1-723)
chain: MFEEKASSPSGKMGGEEKPIGAGEEKQKEGGKKKNKEGSGDGGRAELNPWPEYIYTRLEMYNILKAEHDSILAEKAEKDSKPIKVTLPDGKQVDAESWKTTPYQIACGISQGLADNTVIAKVNNVVWDLDRPLEEDCTLELLKFEDEEAQAVYWHSSAHIMGEAMERVYGGCLCYGPPIENGFYYDMYLEEGGVSSNDFSSLEALCKKIIKEKQAFERLEVKKETLLAMFKYNKFKCRILNEKVNTPTTTVYRCGPLIDLCRGPHVRHTGKIKALKIHKNSSTYWEGKADMETLQRIYGISFPDPKMLKEWEKFQEEAKNRDHRKIGRDQELYFFHELSPGSCFFLPKGAYIYNALIEFIRSEYRKRGFQEVVTPNIFNSRLWMTSGHWQHYSENMFSFEVEKELFALKPMNCPGHCLMFDHRPRSWRELPLRLADFGVLHRNELSGALTGLTRVRRFQQDDAHIFCAMEQIEDEIKGCLDFLRTVYSVFGFSFKLNLSTRPEKFLGDIEVWDQAEKQLENSLNEFGEKWELNSGDGAFYGPKIDIQIKDAIGRYHQCATIQLDFQLPIRFNLTYVSHDGDDKKRPVIVHRAILGSVERMIAILTENYGGKWPFWLSPRQVMVVPVGPTCDEYAQKVRQQFHDAKFMADIDLDPGCTLNKKIRNAQLAQYNFILVVGEKEKISGTVNIRTRDNKVHGERTISETIERLQQLKEFRSKQAEEEF
Regarding B1, the binding result in the experiment with S/FLAG/SBP tagged KARS, with S/FLAG/SBP tagged AIMP1 and with S/FLAG/SBP tagged AIMP2 was “binds weakly” each time.

B2: Isoform 1 of Probable threonyl-tRNA synthetase 2 (enzyme, UniProt A2RTX5 1-802)
chain: MAAEALAAEAVASRLERQEEDIRWLWSEVERLRDEQLNAPYSCQAEGPCLTREVAQLRAENCDLRHRLCSLRLCLAEERSRQATLESAELEAAQEAGAQPPPSQSQDKDMKKKKMKESEADSEVKHQPIFIKERLKLFEILKKDHQLLLAIYGKKGDTSNIITVRVADGQTVQGEVWKTTPYQVAAEISQELAESTVIAKVNGELWDLDRPLEGDSSLELLTFDNEEAQAVYWHSSAHILGEAMELYYGGHLCYGPPIENGFYYDMFIEDRAVSSTELSALENICKAIIKEKQPFERLEVSKEILLEMFKYNKFKCRILNEKVNTATTTVYRCGPLIDLCKGPHVRHTGKIKTIKIFKNSSTYWEGNPEMETLQRIYGISFPDNKMMRDWEKFQEEAKNRDHRKIGKEQELFFFHDLSPGSCFFLPRGAFIYNTLTDFIREEYHKRDFTEVLSPNMYNSKLWEASGHWQHYSENMFTFEIEKDTFALKPMNCPGHCLMFAHRPRSWREMPIRFADFGVLHRNELSGTLSGLTRVRRFQQDDAHIFCTVEQIEEEIKGCLQFLQSVYSTFGFSFQLNLSTRPENFLGEIEMWNEAEKQLQNSLMDFGEPWKMNPGDGAFYGPKIDIKIKDAIGRYHQCATIQLDFQLPIRFNLTYVSKDGDDKKRPVIIHRAILGSVERMIAILSENYGGKWPFWLSPRQVMVIPVGPTCEKYALQVSSEFFEEGFMADVDLDHSCTLNKKIRNAQLAQYNFILVVGEKEKIDNAVNVRTRDNKIHGEILVTSAIDKLKNLRKTRTLNAEEAF
For B2, the binding entry (in experiment [1]; in experiment [2]; with S/FLAG/SBP tagged AIMP1; with S/FLAG/SBP tagged AIMP2) was “binds” throughout.

B3: Isoform 1 of Probable threonyl-tRNA synthetase 2, A2RTX5 1-802 (enzyme)
chain: MAAEALAAEAVASRLERQEEDIRWLWSEVERLRDEQLNAPYSCQAEGPCLTREVAQLRAENCDLRHRLCSLRLCLAEERSRQATLESAELEAAQEAGAQPPPSQSQDKDMKKKKMKESEADSEVKHQPIFIKERLKLFEILKKDHQLLLAIYGKKGDTSNIITVRVADGQTVQGEVWKTTPYQVAAEISQELAESTVIAKVNGELWDLDRPLEGDSSLELLTFDNEEAQAVYWHSSAHILGEAMELYYGGHLCYGPPIENGFYYDMFIEDRAVSSTELSALENICKAIIKEKQPFERLEVSKEILLEMFKYNKFKCRILNEKVNTATTTVYRCGPLIDLCKGPHVRHTGKIKTIKIFKNSSTYWEGNPEMETLQRIYGISFPDNKMMRDWEKFQEEAKNRDHRKIGKEQELFFFHDLSPGSCFFLPRGAFIYNTLTDFIREEYHKRDFTEVLSPNMYNSKLWEASGHWQHYSENMFTFEIEKDTFALKPMNCPGHCLMFAHRPRSWREMPIRFADFGVLHRNELSGTLSGLTRVRRFQQDDAHIFCTVEQIEEEIKGCLQFLQSVYSTFGFSFQLNLSTRPENFLGEIEMWNEAEKQLQNSLMDFGEPWKMNPGDGAFYGPKIDIKIKDAIGRYHQCATIQLDFQLPIRFNLTYVSKDGDDKKRPVIIHRAILGSVERMIAILSENYGGKWPFWLSPRQVMVIPVGPTCEKYALQVSSEFFEEGFMADVDLDHSCTLNKKIRNAQLAQYNFILVVGEKEKIDNAVNVRTRDNKIHGEILVTSAIDKLKNLRKTRTLNAEEAF
As for B3, the binding entry in experiment [3] and in experiment [4] was “binds” each time.
